In test [1] the test system is HSkMC (human skeletal muscle cells). Description: cytotoxicity call (relative viability < 0.9). The note with it: 10 µM.
In test [2] the test system is HepG2. Description: cytotoxicity call (relative viability < 0.9). The note with it: 10 µM.
The test system of test [3] is S. aureus RN4220. Description: growth inhibition call (relative growth <= 0.2). The note with it: 50 µM.

This is an account of results in the antibiotic and cytotoxicity screens of Wong et al. (2023).

The other results are listed elsewhere or left out.

Turning to `C[C@@H]1CN([C@H](C)CO)C(=O)Cc2cc(NC(=O)c3ccncc3)ccc2O[C@H]1CN(C)S(=O)(=O)c1ccc(Cl)cc1`, the cytotoxicity call in test [1] and in test [2] was “inactive” throughout. For the same compound, in test [3], the growth inhibition call is “inactive”.

For the compound `Cc1ccccc1S(=O)(=O)N1C[C@H](O)COC[C@H]2O[C@H](CC(=O)NCCc3ccccc3)CC[C@@H]21`, the cytotoxicity call in test [1] and in test [2] was “inactive” each time. Moreover, in test [3], the growth inhibition call was “inactive”.

For `O=C(O)C[C@H]1CC[C@H]2[C@@H](COC[C@H](O)CN2S(=O)(=O)c2ccc(F)cc2)O1`, the cytotoxicity call in test [1] and in test [2] was “inactive” throughout. The growth inhibition call in test [3] was “inactive”.

Take `C[C@@H]1CN([C@@H](C)CO)S(=O)(=O)c2ccc(C#CC3(O)CCCC3)cc2O[C@@H]1CN(C)C(=O)Cc1ccncc1`: the cytotoxicity call in test [1] and in test [2] was “inactive” each time. In test [3], the growth inhibition call was “inactive”.

`C[C@@H]1CCCCO[C@@H](CN(C)C(=O)CCC(F)(F)F)[C@@H](C)CN([C@@H](C)CO)C(=O)c2cc(NC(=O)NC3CCCCC3)ccc2O1`: the cytotoxicity call in test [1] and in test [2] was “inactive” throughout. In addition, the growth inhibition call in test [3] is “inactive”.

Regarding `CC(C)CC#Cc1ccc2c(c1)O[C@H](CN(C)C(=O)Cc1ccncc1)[C@H](C)CN([C@@H](C)CO)S2(=O)=O`, the cytotoxicity call in test [1] and in test [2] was “inactive” in each case. Also, the growth inhibition call in test [3] was “inactive”.

Take `CSc1nc(-c2ccccc2)cc(-c2cccs2)c1C#N`: the cytotoxicity call in test [1] and in test [2] was “inactive” throughout. Further, the growth inhibition call in test [3] is “inactive”.

As to `COC(=O)c1sc2ncn(N)c(=O)c2c1C`, the cytotoxicity call in test [1] and in test [2] was “inactive” in each case. Further, the growth inhibition call in test [3] was “inactive”.

Turning to `CCOC(=O)c1snc2c(=O)nc[nH]c12`, the cytotoxicity call in test [1] and in test [2] was “inactive” throughout. Moreover, in test [3], the growth inhibition call is “inactive”.

Take `C[C@@H]1CCCCO[C@@H](CN(C)S(=O)(=O)c2ccccc2)[C@H](C)CN([C@H](C)CO)C(=O)c2cc(NS(=O)(=O)c3ccc(Cl)cc3)ccc2O1`: the cytotoxicity call in test [1] and in test [2] was “inactive” throughout. For the same compound, the growth inhibition call in test [3] was “inactive”.

With `COc1ccc(NC(=O)Nc2ccc3c(c2)C(=O)N([C@H](C)CO)C[C@H](C)[C@@H](CN(C)C(=O)Nc2ccc(C(F)(F)F)cc2)OCCCC[C@H](C)O3)cc1`, the cytotoxicity call in test [1] and in test [2] was “inactive” in each case. For the same compound, the growth inhibition call in test [3] is “inactive”.

As for `C[C@@H]1CN([C@H](C)CO)C(=O)c2cccc(NC(=O)Nc3ccc(C(F)(F)F)cc3)c2O[C@@H]1CN(C)Cc1ccc(-c2ccccc2)cc1`, the cytotoxicity call in test [1] and in test [2] was “active” throughout. Moreover, in test [3], the growth inhibition call was “inactive”.

As to `Cc1noc(C)c1NC(=O)Nc1ccc2c(c1)C(=O)N([C@H](C)CO)C[C@H](C)[C@@H](CN(C)C(=O)C1CCCCC1)OCCCC[C@H](C)O2`, the cytotoxicity call in test [1] and in test [2] was “inactive” in each case. Further, the growth inhibition call in test [3] was “inactive”.

Turning to `CO[C@H]1C[C@@H](O[C@@H]2/C(C)=C/C[C@@H]3C[C@@H](C[C@]4(CC[C@H](C)[C@@H](C5CCCCC5)O4)O3)OC(=O)[C@@H]3C=C(C)/C(=N/O)[C@H]4OC/C(=C\C=C\[C@@H]2C)[C@]43O)O[C@@H](C)[C@@H]1O`, the cytotoxicity call in test [1] and in test [2] was “inactive” each time. In addition, in test [3], the growth inhibition call is “inactive”.

With `CCCC/C=C/[C@H]([C@@H](O)Cc1ccccc1)N(CC#Cc1ccccc1)Cc1ccccc1Br`, the cytotoxicity call in test [1] and in test [2] was “inactive” throughout. For the same compound, the growth inhibition call in test [3] was “inactive”.

In the case of `C[C@H](CO)N1C[C@H](C)[C@@H](CN(C)Cc2ccc(C(F)(F)F)cc2)OCCCC[C@H](C)Oc2ccc(NC(=O)Nc3ccc(C(F)(F)F)cc3)cc2C1=O`, the cytotoxicity call in test [1] and in test [2] was “inactive” each time. In addition, the growth inhibition call in test [3] was “inactive”.

Take `O=C(C[C@@H]1CC[C@H]2[C@@H](COC[C@H](O)CN2C(=O)Nc2ccc(Cl)c(Cl)c2)O1)NCc1ccc(Cl)c(Cl)c1`: the cytotoxicity call in test [1] and in test [2] was “inactive” throughout. Besides, the growth inhibition call in test [3] is “active”.

In the case of `C[C@H](CO)N1C[C@H](C)[C@@H](CN(C)S(=O)(=O)c2ccc(F)cc2)Oc2ccc(NS(=O)(=O)c3ccccc3)cc2C1=O`, the cytotoxicity call in test [1] and in test [2] was “inactive” throughout. The growth inhibition call in test [3] was “inactive”.

In the case of `Cc1cc(C(=O)Nc2cccc3c2O[C@@H](CN(C)S(=O)(=O)c2ccccc2)[C@H](C)CN([C@H](C)CO)C3=O)n(C)n1`, the cytotoxicity call in test [1] and in test [2] was “inactive” throughout. Moreover, the growth inhibition call in test [3] was “inactive”.

For `COc1ccc(NC(=O)N(C)C[C@H]2OCCCC[C@H](C)Oc3ccc(NC(=O)Nc4ccc(F)cc4)cc3C(=O)N([C@@H](C)CO)C[C@@H]2C)cc1`, the cytotoxicity call in test [1] and in test [2] was “inactive” in each case. For the same compound, the growth inhibition call in test [3] was “inactive”.

For `CC(C)NC(=O)Nc1ccc2c(c1)C(=O)N([C@H](C)CO)C[C@H](C)[C@H](CN(C)C(=O)Nc1ccc3c(c1)OCO3)O2`, the cytotoxicity call in test [1] and in test [2] was “inactive” each time. In addition, the growth inhibition call in test [3] is “inactive”.

In the case of `CO[C@@H]1CN(C)C(=O)c2cc(NS(C)(=O)=O)ccc2OC[C@H](C)N(C(=O)c2ccc3c(c2)OCO3)C[C@H]1C`, the cytotoxicity call in test [1] and in test [2] was “inactive” each time. Besides, the growth inhibition call in test [3] was “inactive”.

As for `O=C(O)c1cccnc1C(=O)O`, the cytotoxicity call in test [1] and in test [2] was “inactive” in each case. In addition, in test [3], the growth inhibition call is “inactive”.

Take `C[C@H](CO)N1C[C@H](C)[C@@H](CN(C)Cc2ccccc2)OCc2ccccc2-c2c(n(C)c3ccccc23)C1=O`: the cytotoxicity call in test [1] was “inactive”. Moreover, the cytotoxicity call in test [2] is “active”. Besides, the growth inhibition call in test [3] is “inactive”.

Regarding `CC(C)(C)[S@@](=O)N1Cc2cc(C(=O)NCc3ccc4c(c3)OCO4)nc(CCNS(=O)(=O)c3ccccc3)c2[C@H]1CCO`, the cytotoxicity call in test [1] and in test [2] was “inactive” each time. Further, the growth inhibition call in test [3] is “inactive”.

As for `O=C(NC1(C(F)(F)F)Oc2cc(Cl)c(Cl)cc2O1)C1=C(N2CCOCC2)/C(=C/c2ccccc2)CC1`, in test [1], the cytotoxicity call was “inactive”. For the same compound, in test [2], the cytotoxicity call is “active”. For the same compound, the growth inhibition call in test [3] was “inactive”.

On to `C[C@H](CO)N1C[C@H](C)[C@H](CN(C)S(=O)(=O)c2cn(C)cn2)Oc2c(NC(=O)C3CC3)cccc2C1=O`, for which the cytotoxicity call in test [1] and in test [2] was “inactive” throughout. In addition, the growth inhibition call in test [3] was “inactive”.

Take `CNC(C)C1CCC(N)C(OC2C(N)CC(N)C(OC3OCC(C)(O)C(NC)C3O)C2O)O1.O=S(=O)(O)O` (centres undefined): the cytotoxicity call in test [1] is “inactive”. For the same compound, the cytotoxicity call in test [2] is “active”. Further, the growth inhibition call in test [3] is “inactive”.
